The molecules below were run against PRMT5/MEP50 Complex (Homo sapiens (Human), UniProt O14744) (assay: PRMT5 inhibition based on TR-FRET assay). Conditions: 32 nM PRMT5:MEP50, 50 nM Histone-H4 peptide, 1 μM SAM.
Format: biochemical
Text: PRMT5 Inhibition Based on TR-FRET Assay:
Protein arginine methyltransferase 5 (PRMT5) is a type II arginine methyltransferase that catalyze mono- and symmetric demethylation on arginine residues of histone or non-histone proteins in presence of S-adenosylmethionine (AdoMet or SAM) a cofactor responsible for donating the methyl group. PRMT5 is reported to be overexpressed in several human cancers. To identify compounds that inhibit the PRMT5 and decrease its activity, a TR-FRET based assay has been established. Time-resolved fluorescence resonance energy transfer (TR-FRET) HTS assays are homogeneous proximity assays where the interaction of two dye-labeled binding partners is detected by the energy transfer between a donor and an acceptor dye and the subsequent light emission by the acceptor dye. PRMT5 catalyzes Histone H4 peptide which is biotin tagged to the Lysine amino acid at carboxyl end, in presence of S-adenosyl-1-methionine (SAM) to methylate the peptide. The antibody specific to mono methylated H4 peptide (H4R3) with Ig conjugate binds to the methylated peptide, indirectly binding to the Europium lanthanide. SureLight Allophycocyanin-Streptavidin binds to the biotin tag of the peptide, therefore accepting the energy transferred from the Europium lanthanide. This energy transfer between Europium to SureLight Allophycocyanin is a direct measure of the activity/inhibition of the PRMT5 enzyme.
Assay buffer: 20 mM BICINE (pH 7.6), 25 mM NaCl, 2 mM DTT, 0.01% Tween-20 and 0.01% BSA.
The compound dilutions were prepared as 7.5% DMSO stock solutions in assay buffer. To 2 μL (7.5×) of test compound, 5 μL of PRMT5 enzyme prepared in assay buffer (Final concentration of 32 nM in 15 μL reaction volume) was added and allowed for 30 minutes pre-incubation time in a white polystyrene 384-well plate at room temperature. […] The plates were then read on Victor-3 with Excitation at 340 nm and Emissions collected at 615 and 665 nm in TR-FRET protocol. […]

UniProt O14744, sequence (O14744 whole entry): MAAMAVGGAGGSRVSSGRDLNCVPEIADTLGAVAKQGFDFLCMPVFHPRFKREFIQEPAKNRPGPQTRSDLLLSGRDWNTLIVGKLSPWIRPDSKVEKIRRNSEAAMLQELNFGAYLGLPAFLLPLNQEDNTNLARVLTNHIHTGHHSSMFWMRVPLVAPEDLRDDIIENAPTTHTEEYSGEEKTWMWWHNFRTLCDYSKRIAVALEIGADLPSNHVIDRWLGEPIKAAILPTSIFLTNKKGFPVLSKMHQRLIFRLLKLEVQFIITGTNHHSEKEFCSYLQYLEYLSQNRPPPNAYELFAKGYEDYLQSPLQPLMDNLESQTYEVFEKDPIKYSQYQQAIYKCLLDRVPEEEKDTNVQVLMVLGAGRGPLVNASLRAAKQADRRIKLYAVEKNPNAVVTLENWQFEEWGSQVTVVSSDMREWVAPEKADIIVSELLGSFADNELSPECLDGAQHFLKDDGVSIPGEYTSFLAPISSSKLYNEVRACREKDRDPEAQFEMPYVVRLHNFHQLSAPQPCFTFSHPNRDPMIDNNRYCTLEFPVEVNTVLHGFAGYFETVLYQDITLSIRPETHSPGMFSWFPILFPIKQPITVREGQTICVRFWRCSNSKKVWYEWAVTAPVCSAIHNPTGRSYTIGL
UniProt O14744, sequence (Q9BQA1 whole entry partner): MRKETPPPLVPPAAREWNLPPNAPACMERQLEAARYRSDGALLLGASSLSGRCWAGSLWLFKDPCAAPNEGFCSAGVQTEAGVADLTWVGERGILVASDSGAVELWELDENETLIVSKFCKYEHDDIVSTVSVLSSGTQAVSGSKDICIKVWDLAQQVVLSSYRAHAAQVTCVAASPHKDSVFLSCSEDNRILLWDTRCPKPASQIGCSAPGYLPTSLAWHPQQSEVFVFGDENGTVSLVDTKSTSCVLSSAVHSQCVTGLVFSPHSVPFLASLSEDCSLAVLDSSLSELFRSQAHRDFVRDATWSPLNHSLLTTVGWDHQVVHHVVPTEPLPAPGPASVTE

| SMILES | IC50 |
| --- | --- |
| N#Cc1ccc(CN2CCN(CC(O)CN3CCc4ccccc4C3)C2=O)nc1 (single isomer, unassigned) [Example 35b, 6-((3-(3-(3,4-Dihydroisoquinolin-2(1H)-yl)-2-hydroxypropyl)-2-oxoimidazolidin-1-yl)methyl)nicotinonitrile] | 1.75 µM |
| N#Cc1ccc(CN2CCN(CC(O)CN3CCc4ccccc4C3)C2=O)nc1 (stereo not drawn) [Example 35, 6-((3-(3-(3,4-Dihydroisoquinolin-2(1H)-yl)-2-hydroxypropyl)-2-oxoimidazolidin-1-yl)methyl)nicotinonitrile] | 0.09 µM |
| N#Cc1ccc(CN2CCN(CC(O)CN3CCc4ccccc4C3)C2=O)nc1 (single isomer, unassigned) [Example 35a, 6-((3-(3-(3,4-Dihydroisoquinolin-2(1H)-yl)-2-hydroxypropyl)-2-oxoimidazolidin-1-yl)methyl)nicotinonitrile] | 0.06 µM |

From patent US11365205B2 (Aurigene Discovery Technologies Limited, priority 2018, dated 2022)
